Residue numbers refer to the chain shown, from its start. Like-named read-outs stand apart in the source and are kept apart here.
T1: human VEGF-A (human, UniProt P15692-4 27-191)
T1 sequence (looked up): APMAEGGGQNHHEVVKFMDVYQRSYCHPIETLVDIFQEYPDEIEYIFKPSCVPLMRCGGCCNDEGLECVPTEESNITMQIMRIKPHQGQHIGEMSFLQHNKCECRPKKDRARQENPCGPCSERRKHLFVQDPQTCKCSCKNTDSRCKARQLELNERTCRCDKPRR

B1: TPP-14940 (bispecific antibody, human IgG1, kappa)
light: DIQLTQSPSSLSASVGDRVTITCSASQDISNYLNWYQQKPGKAPKVLIYFTSSLHSGVPSRFSGSGSGTDFTLTISSLQPEDFATYYCQQYSTVPWTFGQGTKVEIKRTVAAPSVFIFPPSDEQLKSGTASVVCLLNNFYPREAKVQWKVDNALQSGNSQESVTEQDSKDSTYSLSSTLTLSKADYEKHKVYACEVTHQGLSSPVTKSFNRGEC
heavy: EVQLVESGGGLVQPGGSLRLSCAASGYDFTHYGMNWVRQAPGKGLEWVGWINTYTGEPTYAADFKRRFTFSLDTSKSTAYLQMNSLRAEDTAVYYCAKYPYYYGTSHWYFDVWGQGTLVTVSSASTKGPSVFPLAPSSKSTSGGTAALGCLVKDYFPEPVTVSWNSGALTSGVHTFPAVLQSSGLYSLSSVVTVPSSSLGTQTYICNVNHKPSNTKVDKRV[in this place human IgG1 Fc with changes]GGSEGKSSGSGSESKSTGGSQVQLVQSGAEVKKPGASVKVSCKASGYTFTNYDIIWVRQAPGQGLEWMGYINPYNDGTKYNEKFKGRVTMTRDTSTSTVYMELSSLRSEDTAVYYCARLLKYRRFRYYAIDYWGQGTTVTVSSGGSEGKSSGSGSESKSTGGSDIQMTQSPSSLSASVGDRVTITCRTSENVYSNLAWYQQKPGKAPKLLIYAASNLQSGVPSRFSGSGSGTDYTFTISSLQPEDIATYYCQHFWGSPFTFGQGTKLEIK
B2: TPP-19989 (bispecific antibody, human IgG1, kappa)
light: B1 light
heavy: EVQLVESGGGLVQPGGSLRLSCAASGYDFTHYGMNWVRQAPGKGLEWVGWINTYTGEPTYAADFKRRFTFSLDTSKSTAYLQMNSLRAEDTAVYYCAKYPYYYGTSHWYFDVWGQGTLVTVSSASTKGPSVFPLAPSSKSTSGGTAALGCLVKDYFPEPVTVSWNSGALTSGVHTFPAVLQSSGLYSLSSVVTVPSSSLGTQTYICNVNHKPSNTKVDKRV[in this place human IgG1 Fc with changes]GGGGSGGGGSGGGGSGGGGSDIQMTQSPSSLSASVGDRVTITCRTSENVYSNLAWYQQKPGKAPKLLIYAASNLQSGVPSRFSGSGSGTDYTFTISSLQPEDIATYYCQHFWGSPFTFGQGTKLEIKGGSEGKSSGSGSESKSTGGSQVQLVQSGAEVKKPGASVKVSCKASGYTFTNYDIIWVRQAPGQGLEWMGYINPYNDGTKYNEKFKGRVTMTRDTSTSTVYMELSSLRSEDTAVYYCARLLKYRRFRYYAIDYWGQGTTVTVSS
B3: TPP-14941 (bispecific antibody, human IgG1, kappa)
light: B1 light
heavy: EVQLVESGGGLVQPGGSLRLSCAASGYDFTHYGMNWVRQAPGKGLEWVGWINTYTGEPTYAADFKRRFTFSLDTSKSTAYLQMNSLRAEDTAVYYCAKYPYYYGTSHWYFDVWGQGTLVTVSSASTKGPSVFPLAPSSKSTSGGTAALGCLVKDYFPEPVTVSWNSGALTSGVHTFPAVLQSSGLYSLSSVVTVPSSSLGTQTYICNVNHKPSNTKVDKRV[in this place human IgG1 Fc with changes]GGSEGKSSGSGSESKSTGGSDIQMTQSPSSLSASVGDRVTITCRTSENVYSNLAWYQQKPGKAPKLLIYAASNLQSGVPSRFSGSGSGTDYTFTISSLQPEDIATYYCQHFWGSPFTFGQGTKLEIKGGSEGKSSGSGSESKSTGGSQVQLVQSGAEVKKPGASVKVSCKASGYTFTNYDIIWVRQAPGQGLEWMGYINPYNDGTKYNEKFKGRVTMTRDTSTSTVYMELSSLRSEDTAVYYCARLLKYRRFRYYAIDYWGQGTTVTVSS
B4: TPP-19988 (bispecific antibody, human IgG1, kappa)
light: B1 light
heavy: EVQLVESGGGLVQPGGSLRLSCAASGYDFTHYGMNWVRQAPGKGLEWVGWINTYTGEPTYAADFKRRFTFSLDTSKSTAYLQMNSLRAEDTAVYYCAKYPYYYGTSHWYFDVWGQGTLVTVSSASTKGPSVFPLAPSSKSTSGGTAALGCLVKDYFPEPVTVSWNSGALTSGVHTFPAVLQSSGLYSLSSVVTVPSSSLGTQTYICNVNHKPSNTKVDKRV[in this place human IgG1 Fc with changes]GGGGSGGGGSDIQMTQSPSSLSASVGDRVTITCRTSENVYSNLAWYQQKPGKAPKLLIYAASNLQSGVPSRFSGSGSGTDYTFTISSLQPEDIATYYCQHFWGSPFTFGQGTKLEIKGGSEGKSSGSGSESKSTGGSQVQLVQSGAEVKKPGASVKVSCKASGYTFTNYDIIWVRQAPGQGLEWMGYINPYNDGTKYNEKFKGRVTMTRDTSTSTVYMELSSLRSEDTAVYYCARLLKYRRFRYYAIDYWGQGTTVTVSS
B5: TPP-22214 (bispecific antibody, human IgG1, kappa)
light: B1 light with D70G
heavy: QVQLVESGGGLVQPGGSLRLSCAASGYDFTHYGMNWVRQAPGKGLEWVGWINTYTGEPTYAADFKRRFTFSLDTSKSTAYLQMNSLRAEDTAVYYCAKYPYYYGTSHWYFDVWGQGTLVTVSSASTKGPSVFPLAPSSKSTSGGTAALGCLVKDYFPEPVTVSWNSGALTSGVHTFPAVLQSSGLYSLSSVVTVPSSSLGTQTYICNVNHKPSNTKVDKRV[in this place human IgG1 Fc with changes]GGGGSGGGGSDIQMTQSPSSLSASVGDRVTITCRTSENVYSNLAWYQQKPGKAPKLLIYAASNLQSGVPSRFSGSGSGTDYTFTISSLQPEDIATYYCQHFWGSPFTFGCGTKLEIKGGSEGKSSGSGSESKSTGGSQVQLVQSGAEVKKPGASVKVSCKASGYTFTNYDIIWVRQAPGQCLEWMGYINPYNDGTKYNEKFKGRVTMTRDTSTSTVYMELSSLRSEDTAVYYCARLLKYRRFRYYAIDYWGQGTTVTVSS

Legend:
Experiment in all cases: cell-based or functional assay
[1] = target: T1, human VEGF-A
[2] = target: T1, human VEGF-A; remark: listed apart in the source
[3] = target: T1, human VEGF-A; remark: listed apart in the source
[4] = target: T2, human TrkB receptor (human, UniProt Q16620 32-822)
[5] = target: T2, human TrkB receptor; remark: listed apart in the source
[6] = target: T2, human TrkB receptor; remark: listed apart in the source
[7] = target: T1, human VEGF-A; remark: listed apart in the source
[8] = target: T1, human VEGF-A; remark: listed apart in the source
[9] = target: T1, human VEGF-A; remark: listed apart in the source
[10] = target: T1, human VEGF-A; remark: listed apart in the source

T2 sequence (Q16620 32-822): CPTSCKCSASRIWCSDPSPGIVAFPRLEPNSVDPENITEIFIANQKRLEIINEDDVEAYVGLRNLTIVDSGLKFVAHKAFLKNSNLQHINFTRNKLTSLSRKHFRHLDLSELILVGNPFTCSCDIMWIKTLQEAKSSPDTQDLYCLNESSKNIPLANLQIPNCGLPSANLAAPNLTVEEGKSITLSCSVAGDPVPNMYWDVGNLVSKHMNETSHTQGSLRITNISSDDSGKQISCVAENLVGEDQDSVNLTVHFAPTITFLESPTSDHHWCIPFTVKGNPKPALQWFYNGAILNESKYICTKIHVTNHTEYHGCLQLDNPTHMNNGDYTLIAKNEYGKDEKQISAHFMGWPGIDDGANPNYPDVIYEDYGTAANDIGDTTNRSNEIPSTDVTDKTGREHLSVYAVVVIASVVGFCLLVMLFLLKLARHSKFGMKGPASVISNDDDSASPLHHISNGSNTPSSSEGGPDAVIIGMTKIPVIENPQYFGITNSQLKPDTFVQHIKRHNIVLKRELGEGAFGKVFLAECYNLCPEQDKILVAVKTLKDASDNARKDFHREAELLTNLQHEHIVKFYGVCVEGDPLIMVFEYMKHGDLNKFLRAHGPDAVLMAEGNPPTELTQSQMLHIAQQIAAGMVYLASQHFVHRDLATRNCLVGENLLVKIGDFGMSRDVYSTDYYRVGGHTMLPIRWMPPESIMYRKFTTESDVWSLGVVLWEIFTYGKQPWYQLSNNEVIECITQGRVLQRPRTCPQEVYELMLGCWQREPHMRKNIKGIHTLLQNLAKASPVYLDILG

Row | Binder | concentration for full inhibition of VEGF-induced HRMEC proliferation [1] [nM] | fold better IC50 than Ranibizumab scFv or TPP-11736 [1] [fold] | Bottom plateau (ERK1/2 phosphorylation, counts) [2] [counts] | Bottom plateau (Src phosphorylation, counts) [2] [counts] | IC50 (ERK1/2 phosphorylation) [2] [nM] | IC50 (Src phosphorylation) [2] [nM] | Bottom plateau (ERK1/2 phosphorylation, counts) [3] [counts] | Bottom plateau (Src phosphorylation, counts) [3] [counts] | IC50 (ERK1/2 phosphorylation) [3] [nM] | IC50 (Src phosphorylation) [3] [nM] | EC50 (pERK) [5] [nM] | EC50 (pTrkB) [5] [nM] | other results
1 | B1 | 0.25 | 10 | 438 | 4770 | 0.802 | 0.276 | 438 | 4770 | 0.802 | 0.276 |  |  | EC50 (pERK) [4]: 0.475 nM; EC50 (pTrkB) [4]: 3.21 nM
2 | B2 |  |  |  |  |  |  |  |  |  |  | 1.77 | 7.37 | 
3 | B3 | 0.25 | 10 | 1150 | 4370 | 0.43 | 0.393 | 1150 | 4370 | 0.43 | 0.393 | 1.29 | 6.28 | 
4 | B4 |  |  |  |  |  |  |  |  |  |  | 2.05 | 7.83 | 
5 | B5 | 0.25 |  |  |  |  |  |  |  |  |  |  |  | TrkB-phosphorylation efficacy (AlphaLISA counts) [6]: 5100 AlphaLISA counts; TrkB-phosphorylation efficacy relative to parental clone without CC bridge (%) [6]: 121%; TrkB-phosphorylation potency (EC50, nM) [6]: 2.18 nM; ERK1/2 phosphorylation: IC50 [7]: 0.415 nM; ERK1/2 phosphorylation: LogIC50 [7]: -9.38; HRMEC proliferation Delta (area under the curve vs. basal): IC50 (pM) [8]: 88.7 pM; HRMEC proliferation Delta (area under the curve vs. basal): LogIC50 [8]: -10.1; p38-MAPK phosphorylation (T180/Y182): IC50 [9]: 0.472 nM; p38-MAPK phosphorylation (T180/Y182): LogIC50 [9]: -9.33; Src phosphorylation (Y419): IC50 [10]: 0.426 nM; Src phosphorylation (Y419): LogIC50 [10]: -9.03

Source: US20220119536A1 (Boehringer Ingelheim, published 2022)
